Hit rate of the full screen: of about 310,000 compounds, about 14,000 (4.5%) showed an effect of 50% or more. Effects have a minus sign here. The list shows a part of the results.
These compounds were tested against human ether-à-go-go-related gene (hERG) potassium channel (human, UniProt Q12809) (assay: primary screen, population patch clamp on CHO cells stably expressing hERG).
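Also: peak tail current of the secondary pulse compared with the same well before compound.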

human ether-à-go-go-related gene (hERG) potassium channel, sequence (Q12809 whole entry, looked up): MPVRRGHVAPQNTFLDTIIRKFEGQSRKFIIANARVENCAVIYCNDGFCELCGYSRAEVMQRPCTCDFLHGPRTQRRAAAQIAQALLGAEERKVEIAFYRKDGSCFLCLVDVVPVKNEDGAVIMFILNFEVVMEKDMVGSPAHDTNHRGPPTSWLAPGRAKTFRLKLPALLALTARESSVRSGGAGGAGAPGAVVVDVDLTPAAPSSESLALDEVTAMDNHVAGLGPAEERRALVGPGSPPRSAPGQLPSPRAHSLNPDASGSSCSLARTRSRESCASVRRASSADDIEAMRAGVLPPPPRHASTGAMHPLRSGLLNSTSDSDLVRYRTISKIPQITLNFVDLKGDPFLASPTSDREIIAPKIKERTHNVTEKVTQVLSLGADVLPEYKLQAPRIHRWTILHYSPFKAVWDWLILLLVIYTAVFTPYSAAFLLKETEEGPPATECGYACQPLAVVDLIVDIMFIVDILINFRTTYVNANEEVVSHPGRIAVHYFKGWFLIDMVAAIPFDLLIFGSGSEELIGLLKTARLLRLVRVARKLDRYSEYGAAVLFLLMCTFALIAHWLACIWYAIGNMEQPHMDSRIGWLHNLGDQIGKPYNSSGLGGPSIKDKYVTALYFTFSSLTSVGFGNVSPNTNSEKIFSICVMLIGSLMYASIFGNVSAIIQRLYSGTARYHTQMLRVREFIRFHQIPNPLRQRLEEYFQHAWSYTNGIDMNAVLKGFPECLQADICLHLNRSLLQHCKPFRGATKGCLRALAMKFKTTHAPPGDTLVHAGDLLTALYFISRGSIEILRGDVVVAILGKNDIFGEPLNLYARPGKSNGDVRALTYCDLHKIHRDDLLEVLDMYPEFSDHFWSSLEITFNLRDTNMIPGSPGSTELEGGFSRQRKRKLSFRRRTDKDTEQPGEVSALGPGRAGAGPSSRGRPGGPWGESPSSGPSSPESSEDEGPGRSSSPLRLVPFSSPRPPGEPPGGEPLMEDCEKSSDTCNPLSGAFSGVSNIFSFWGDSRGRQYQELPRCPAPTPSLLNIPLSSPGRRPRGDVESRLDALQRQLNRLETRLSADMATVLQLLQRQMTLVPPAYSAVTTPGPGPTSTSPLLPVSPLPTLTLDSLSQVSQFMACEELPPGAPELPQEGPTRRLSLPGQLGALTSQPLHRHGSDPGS

Structure (SMILES) | hERG current change (%, negative = inhibition) at 10uM
Cc1ccc(S(=O)(=O)NCC2CCC(C(=O)NCc3ccco3)CC2)cc1 (stereo not shown) | -23.8%
C=C1CCN([C@@H](CC(C)C)C(=O)NCCCc2ccccc2)S(=O)(=O)c2ccccc21 | -21.1%
O=C(CSc1nnc(Cc2ccccc2)o1)NC1CC2CCC1C2 (stereo not shown) | -0.675%
O=C(O)C(=O)O.c1ccc(-c2ccccc2OCCN2CCCCC2)cc1 | -45.9%
O=C(Nc1ncccc1O)c1ccc(OCC2CCCO2)cc1 (stereo not shown) | 21.3%
COc1ccc(NC(C)=O)cc1NS(=O)(=O)c1ccc2c(c1)OCCO2 | 21.4%
Cc1ccc(S(=O)(=O)NC(=O)c2ccccc2F)cc1 | -10.5%
COc1ccc(NC(=O)c2oc3ccccc3c2C)cn1 | 23.5%
Cc1ccc(-c2ccc(/C=N\n3cnnc3)o2)c(Br)c1 | 4.33%
CCC(C)(C)C1CCC(=NNS(=O)(=O)c2ccc(C)c([N+](=O)[O-])c2)CC1 (stereo not shown) | 8.84%
S=C(NCCCN1CCOCC1)N1CCN(c2ccccc2)CC1 | -1.28%
COc1ccccc1C(=O)NCC(=O)n1nc(C)cc1C | 22.8%
CCn1c(SCC(=O)Nc2ccc(S(=O)(=O)Nc3ccccn3)cc2)nnc1-c1ccncc1 | 1.35%
Cc1ccccc1NC(=O)COc1coc(CN2CCCc3ccccc32)cc1=O | -16.9%
C=CCOn1c(=O)c(-c2ccc(Br)cc2)[n+]([O-])c2ccccc21 | 11.7%
CCOC(=O)CSC1=C(C#N)C(c2sccc2C)CC(=O)N1 (stereo not shown) | -23.6%
Cc1ccnc2nc(C(=O)OCC(=O)c3ccc(Cl)cc3)nn12 | 12.6%
COc1ccc(CCC(C)N2CCC(CO)(Cc3ccccc3)CC2)cc1 (stereo not shown) | -73.4%
Cn1c(SCCOc2ccccc2F)nc2ccccc2c1=O | 10.2%
CCC(=O)Nc1c2c(nc3c1CCC3)CCCC2 | -7.07%
CCOC(=O)C1=C(CSc2nc(C)cc(C)c2C#N)OC(N)=C(C#N)C1c1ccccc1.CN(C)C=O (stereo not shown) | 0.173%
Cc1cc(C)c[n+](CC(=O)c2cc3ccccc3oc2=O)c1.[Br-] | -36.1%
CCOC(=O)c1c(NC(=O)CN(CC)CC)sc2c1CCC2 | -9.74%

Structure (SMILES) | hERG current change (%, negative = inhibition) at 10uM
CCOc1ccc(C(=O)c2cccs2)cc1 | -6.82%
Cc1ccc2nc(-c3ccc(NS(=O)(=O)c4ccccc4)cc3)sc2c1 | 11%
CCOC(=O)COc1cc([N+](=O)[O-])cc2cccnc12 | 0.631%
N#Cc1nc(COc2ccc(Br)cc2)oc1N1CCCCCC1 | -30.1%
CC1CC(=O)c2cnc(NCC3CCCO3)nc2C1 (stereo not shown) | 5.18%
Cc1ccccc1NC(=O)COC(=O)Cc1cccc(C(F)(F)F)c1 | 6.41%
Cc1c(C(=O)Nc2ccncc2)oc2ccccc12 | -6.79%
COc1ccc(OC)c(CCNC(=O)CCc2nnc3ccc(N4CCCCC4)nn23)c1 | -22.8%
Cc1ccccc1COC(=O)CNC(=O)c1sc2ccccc2c1Cl | -3.79%
Cc1nc2ccc(Cl)cc2nc1C | 2.73%
COCCNC(=O)Cn1nc(Cc2ccncc2)c2ccccc2c1=O | 6.39%
Cc1ccc2oc(-c3ccco3)nc2c1 | -1.55%
CCOc1ccc(C(CC(=O)O)NC(=O)COc2ccccc2OC)cc1OC (stereo not shown) | 26.4%
COc1ccccc1NC(=O)COC(=O)c1c[nH]c2ccccc12 | 11.7%
COc1ccc(N2CCN(C(=O)c3ccc(N4CCCCS4(=O)=O)cc3)CC2)cc1 | 7.44%
Nc1ccccc1NC(=O)c1ccccc1N | -0.193%
CCOc1cc(C2c3c(n[nH]c3C)C(=O)N2c2ccc(Br)cc2)ccc1O (stereo not shown) | -3.62%
COC(=O)c1cnn(C(=O)c2cc(OC)ccc2Br)c1N | 4.21%
Cc1ccc(C2CC(c3cccc(Cl)c3)n3nc(N)nc3N2)cc1 (stereo not shown) | 5.87%
Cc1cc(=O)oc2cc(OCC(=O)OCC(=O)Nc3ccc(C(N)=O)cc3)ccc12 | 8.64%
CCOC(=O)c1cc(C(=O)OCC)cc(-n2cc(O)c(C(=O)OCC)n2)c1 | 13.1%
O=C(O)c1cc([N+](=O)[O-])ccc1C(=O)Nc1ccccc1 | 12.7%
CSc1ccn(CCC(=O)O)c(=O)n1 | 8.46%

Structure (SMILES) | hERG current change (%, negative = inhibition) at 10uM
Nc1c(C(=O)C2CC2)sc2nc(-c3cccs3)cc(C(F)(F)F)c12 | 19.9%
COc1ccc(N(CC(=O)N2CCCCCC2)S(=O)(=O)c2c(C)[nH]c(=O)[nH]c2=O)cc1 | 2.82%
CCOC(=O)c1cc(=O)n(-c2ccc(Cl)cc2C)[nH]1 | 9.94%
CCOC(=O)/C(C#N)=C/c1c(OCC)n(CC)c2ccccc12 | -5.46%
CCn1c(SCC(=O)Nc2cc(C)on2)nnc1-c1ccco1 | -4.87%
COc1ccccc1/C=C/C(=O)Oc1cccc2cccnc12.Cl | 3.93%
COc1cccc(-c2ccc(C#N)c(SCC(=O)NCCc3ccccc3)n2)c1 | 2.15%
Cl.c1ccc2c3c([nH]c2c1)C1(CCCCC1)NCC3 | 2.11%
O=C(NC1CCCCC1)C(c1cccs1)N(C(=O)c1ccco1)c1ccc2c(c1)OCCO2 (stereo not shown) | -7.63%
O=C(N/C(=C\c1ccc(Br)cc1)C(=O)N1CCOCC1)c1ccco1 | -41%
CCOc1ccc(C=Nc2cccc3ncccc23)cc1 | 2.86%
CCCCc1nnc(NC(=O)c2nc3nccc(C)n3n2)s1 | 13.7%
Cc1ccc(N2C(=O)CC(NCc3ccc4c(c3)OCO4)C2=O)cc1Cl (stereo not shown) | -54.8%
CSc1cccc(NC(=O)Nc2ccccc2C(N)=O)c1 | 15.3%
C=CCN1C(=O)C(Cc2ccc(OCC)cc2)SC1=Nc1ccc(C(=O)O)cc1 (stereo not shown) | -2.45%
Cc1cccn2c(NC(=O)c3ccccc3F)c(-c3ccccc3)nc12 | -6.62%
C=CCn1c(=O)c2ccccc2n2c(SCC(N)=O)nnc12 | 2.96%
Cc1cc(-c2nnc(SCC(=O)Nc3ccc(F)cc3F)n2N)n[nH]1 | 1.14%
COc1ccc(C)cc1NC(=O)COC(=O)C1CC1 | 6.16%
O=C(CNC(=O)c1sc2ccccc2c1Cl)OCc1ccccc1 | 3.28%
C=CCN(c1ccccc1)S(=O)(=O)c1ccc(Cl)c(C(=O)OCC(=O)NCCCN2CCCC2=O)c1 | -10.6%
CN1C(=O)c2oc3ccccc3c(=O)c2C1c1ccncc1 (stereo not shown) | 2.48%
O=C(Nc1ccc(NC(=O)c2ccco2)nc1)c1ccccn1 | 15.8%

Structure (SMILES) | hERG current change (%, negative = inhibition) at 10uM
Cc1cc(C)cc(N2C(=O)CSC2c2cccs2)c1 (stereo not shown) | -3.11%
CC1CN(C(=O)CSc2nnc(-c3ccccc3)o2)CC(C)O1 (stereo not shown) | 17.3%
Cc1c(/C=C(\C#N)C(=O)NCc2ccccc2)cc(C#N)n1C | 10.4%
O=C(c1ccc(Oc2ccc([N+](=O)[O-])cc2)cc1)N1CCCCCC1 | -25.5%
Cc1cc(/C(N)=N/OC(=O)c2ccc(Cl)cc2)no1 | 3.62%
Oc1ccc(-c2nncn2-c2ccccc2)cc1 | 14.5%
CCOC(=O)C1CCN(c2c(NCc3ccc(C(=O)NCCC(C)C)cc3)c(=O)c2=O)CC1 | 0.362%
O=C1CCCC2=C1C(c1ccccc1)C1C(=O)c3ccccc3C1=N2 (stereo not shown) | 6.16%
Cc1ccc(-c2cc(C(F)F)n3ncc(C(=O)NN4CCCCC4)c3n2)cc1 | 23.8%
COc1ccc(C(=O)NC(Cc2c[nH]c3ccccc23)C(=O)O)cc1 (stereo not shown) | 12.4%
COC(=O)N[C@H](CC(C)=O)c1ccccc1 | 13.8%
O=C(Nc1ccc(S(=O)(=O)NCc2ccccc2)cc1)Nc1ccc2c(c1)OCO2 | 3.16%
CCC(C)NC(=O)CSc1nc2ccccc2c(=O)n1Cc1ccc(OC)cc1 (stereo not shown) | 0.538%
CCCCCn1c(CNC(=O)CC)nc2ccccc21 | -17%
COC(=O)c1ccc(-c2cc(C(=O)O)c3cc4c(cc3n2)OCCO4)cc1 | -0.776%
COc1ccccc1N1CCN(S(=O)(=O)c2c(C)[nH]c(C)c2C(=O)N2CCCCC2)CC1 | 12.9%
CCN(CC)S(=O)(=O)c1ccc(/C=C/C(=O)OCC#N)cc1 | -12.4%
Cc1[nH]n(-c2ccccc2)c(=O)c1/C=N/N1C(=O)c2ccc3c4c(ccc(c24)C1=O)CC3 | 1.03%
CC(C)C(C(=O)Nc1nccs1)c1ccc(Cl)cc1 (stereo not shown) | 12.7%
CCN(c1ccc(NC(=O)COC(=O)CCc2nc3ccccc3n2-c2ccccc2)cc1)C(C)C | -0.499%
COc1cc2cc(C(=O)Nc3ccccc3)c(N)nc2cc1OC | -18.6%
CCc1c(C)sc(NC(=O)OC)c1C(N)=O | 12.7%
